Data on 42 sequences can be found in PMC7819943, “Rice protein-binding microarrays: a tool to detect cis-acting elements near promoter regions in rice”.

The list shows a part of the results.

For the test, the target named is T1, OsWOX13 (Oryza sativa, UniProt Q5QMM3 1-267).
T1 sequence: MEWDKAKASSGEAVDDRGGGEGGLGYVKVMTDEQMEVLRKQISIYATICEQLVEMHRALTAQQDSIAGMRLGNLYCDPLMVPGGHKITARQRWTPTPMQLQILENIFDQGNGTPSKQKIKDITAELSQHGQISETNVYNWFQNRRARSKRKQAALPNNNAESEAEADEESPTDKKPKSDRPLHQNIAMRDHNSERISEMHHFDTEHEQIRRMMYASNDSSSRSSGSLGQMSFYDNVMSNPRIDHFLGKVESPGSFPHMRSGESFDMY
The test can be described thus: protein-binding microarray (RPBM); PBS, 2% BSA, 51.3 ng/ul salmon testes DNA, 50 uM zinc acetate, 200 nM TF, 25 C, 1 h; high values mean tight binding. The note with it: protein: recombinant; tags: N-terminal polyhistidine and DsRed monomer fusion (pET32a); label: CyDye5-dUTP incorporated in the synthesized complementary strand; 3' TTTTT single-stranded linker to array surface; dsDNA, one strand shown. An outline of the steps: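 Binding signal here means per-feature fluorescence intensity in arbitrary units. The values were read on an Axon 4000B scanner after a custom Agilent array, double-stranded by primer extension with Cy5-dUTP, was incubated with 200 nM protein at 25 °C for 1 h in PBS with 2% BSA, salmon testes DNA and 50 µM zinc acetate, then washed. The proteins were transcription factors with an N-terminal polyhistidine tag and DsRed, expressed in E. coli BL21-CodonPlus and purified on Ni–NTA.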
As to “AAAGTGATGATTTACTAAATTTTCTAAATGAACGGAGCTACGGAGTCACCTAGTGCAG”, the binding signal was 21400 fluorescence intensity (a.u.). Regarding “CAAACTAATAATTTGGCTTTTGGCTTCTGCTGAAGCAAGTCGGAGTCACCTAGTGCAG”, the binding signal was 4830 fluorescence intensity (a.u.). Consider “GTGGGAAATTGGAAGAGAAATTAACTTATGTGTAGTGTTTCGGAGTCACCTAGTGCAG”, for which the binding signal was 19800 fluorescence intensity (a.u.). As for “TTATGATTTGACAATGTGGTGCTACAGTAAACATTTGCTACGGAGTCACCTAGTGCAG”, the binding signal was 42700 fluorescence intensity (a.u.). Take “ACCCTTAGTTGATTTACAAATTCCACGTGCACCGAAGTGGCGGAGTCACCTAGTGCAG”: the binding signal is 17000 fluorescence intensity (a.u.).

Take “GGACTGCACTATGAATTAATTGGATCACACCTGCTGCTAGCGGAGTCACCTAGTGCAG”: the binding signal is 5650 fluorescence intensity (a.u.). In the case of “TAAGTAATTAATTAATCAATCAATTAATCAATTATTATCCCGGAGTCACCTAGTGCAG”, the binding signal is 52600 fluorescence intensity (a.u.). In the case of “ATTAGTGTATCAATAATTAAGTTTTAATTATTTTAAACTTCGGAGTCACCTAGTGCAG”, the binding signal is 17400 fluorescence intensity (a.u.). Take “AGAATTGATGTCCAGACTGGAATAAAGATGATCTTGAAGCCGGAGTCACCTAGTGCAG”: the binding signal was 10800 fluorescence intensity (a.u.). As to “GGTGTCTCTGATTAAGACTAATTGGAGAGGCCTCTCCAATCGGAGTCACCTAGTGCAG”, the binding signal is 6200 fluorescence intensity (a.u.). “TTTATTAATTTTATAAATTTTAAAATGAGATGGACGGTAACGGAGTCACCTAGTGCAG”: the binding signal is 18600 fluorescence intensity (a.u.). Turning to “AGTAATTAACAAAATACTTTTGTTCATATTTATTAATATCCGGAGTCACCTAGTGCAG”, the binding signal was 19500 fluorescence intensity (a.u.). In the case of “CTCTCTGTCAAGTAGATTGAAGTGGATTTAGAGAAAATTACGGAGTCACCTAGTGCAG”, the binding signal is 3840 fluorescence intensity (a.u.). Turning to “AGATGTAATTGACGAAATCTCCTAGGTCTCTTGTGCAAATCGGAGTCACCTAGTGCAG”, the binding signal is 24600 fluorescence intensity (a.u.). In the case of “AGTGATTATTTATTGGAGTACGATTGAGACCCTTGGTACGCGGAGTCACCTAGTGCAG” it was 33400 fluorescence intensity (a.u.); in that of “ATACTTAAATTTAATGCTACTTATCACATGATGTCTTGGACGGAGTCACCTAGTGCAG”, 8270 fluorescence intensity (a.u.); in that of “ACTAATTTACCCTCTGCCATTTTGACGCGCTCTATCGTGCCGGAGTCACCTAGTGCAG”, 21300 fluorescence intensity (a.u.). On to “CATCAGCCATGATTGAGATGGAATATGACTCCACAGTATTCGGAGTCACCTAGTGCAG”, for which the binding signal is 15200 fluorescence intensity (a.u.). In the case of “TTGATATATATTATCATCTGATGTGATTTCTTGATATCCTCGGAGTCACCTAGTGCAG”, the binding signal was 8250 ± 601 fluorescence intensity (a.u.). Regarding “CCCAACTAATTAATCAAACCATGCATACACAATCAAAGATCGGAGTCACCTAGTGCAG”, the binding signal was 11800 fluorescence intensity (a.u.). The result for “TGGGGATGGCTAATTTACCAATAATGCATGTAGAGAGGATCGGAGTCACCTAGTGCAG” reads 5880 fluorescence intensity (a.u.); that for “AACCAATTTATATTGTCAGAAGAAAATGCATTATATAGGTCGGAGTCACCTAGTGCAG”, 6730 fluorescence intensity (a.u.); that for “AATAGTGTTAAATCCATTTAATTATGTTATTGCATCTTAGCGGAGTCACCTAGTGCAG”, 3740 fluorescence intensity (a.u.). As for “ATGACAATCACCCCAACTATGAATAGAGTGGCATATCCTGCGGAGTCACCTAGTGCAG”, the binding signal is 5360 fluorescence intensity (a.u.). As for “AAATAATTATCCGTAAATAAGAGTATTGTGTCTTCTAGAACGGAGTCACCTAGTGCAG”, the binding signal is 14800 fluorescence intensity (a.u.). Regarding “CTTTAATAATTAAAGTAAACCCAGTCAACTCACCCATTTTCGGAGTCACCTAGTGCAG”, the binding signal is 7880 fluorescence intensity (a.u.).

Regarding “ATCAGAAAAGTTTCTTCGCTGATTGATCGCCAGAAATCGCCGGAGTCACCTAGTGCAG”, the binding signal is 17500 fluorescence intensity (a.u.).

As to “TCCGTGAATTAACTGGCACGCGTGTATATTAGTTCATGTGCGGAGTCACCTAGTGCAG”, the binding signal was 13900 fluorescence intensity (a.u.). In the case of “CACCAATTTAACACGATTCCAAACCACGGACTCCATCTGGCGGAGTCACCTAGTGCAG”, the binding signal was 3380 fluorescence intensity (a.u.). Consider “AACTTGTCATAATTTGAAATTCAAATTCAAATTATTGAAACGGAGTCACCTAGTGCAG”, for which the binding signal is 7400 fluorescence intensity (a.u.).

Take “TCCTAAACTAATTTTACTCATTCGACGGTACTAGTACTCGCGGAGTCACCTAGTGCAG”: the binding signal was 13100 fluorescence intensity (a.u.). For the sequence “ATCACAATTATTGAAGTCTATTTGTAAATCTCCAACCATACGGAGTCACCTAGTGCAG”, the binding signal is 10100 fluorescence intensity (a.u.). Take “CGGCTGAGATTGGAGCCAATCATCTTATCATAAGACCCTCCGGAGTCACCTAGTGCAG”: the binding signal is 38800 fluorescence intensity (a.u.). In the case of “ACTTAATTAATTGTAGTTGAGTTATCATAAGAACCAATTACGGAGTCACCTAGTGCAG” it was 11300 fluorescence intensity (a.u.); in that of “CTGATGGACAGGGAGACGATAAGGAAAGGGGTGACTTGCACGGAGTCACCTAGTGCAG”, 4860 fluorescence intensity (a.u.); in that of “CGCAGATCAATCACATGTCAACAATAACAAATCCATCAATCGGAGTCACCTAGTGCAG”, 13800 fluorescence intensity (a.u.). “GTATAGATTTAATTACAACGAACACAACGGTGTAATCAGACGGAGTCACCTAGTGCAG”: the binding signal was 16000 fluorescence intensity (a.u.). In the case of “TTTGATTAGTTTGTCTGAGAACTCCGCCCTGTCCATGATGCGGAGTCACCTAGTGCAG” it was 41600 fluorescence intensity (a.u.). As for “AGCTTGTCACCTGATTGAGAAGAAAGGACTTGATTGCTTTCGGAGTCACCTAGTGCAG”, the binding signal is 17100 fluorescence intensity (a.u.). As for “CACCAATTACCATTCTTAACTACTGTTATTTTAGGGAGAGCGGAGTCACCTAGTGCAG”, the binding signal was 22300 fluorescence intensity (a.u.). In the case of “AAGTAATTATTAATTCTTTTCCTATCCTTTGATGTATTGTCGGAGTCACCTAGTGCAG”, the binding signal was 19400 fluorescence intensity (a.u.). In the case of “TTCCCAATTCTAAATTGATCAATAGTCAATCATACAATGTCGGAGTCACCTAGTGCAG” it was 21600 fluorescence intensity (a.u.).
